# Reference: the supplement of paper PMC8728848
# The list shows a part of the results.
# Assays:
# Experiment in all cases: glycan array binding signal (z-score within array); higher = stronger binding
# Details in all cases: glycan notation: IUPAC condensed, linker removed
# GlcNAc(b1-3)Gal(b1-4)Glc = target: GlcNAc(b1-3)Gal(b1-4)Glc
# Method in brief: (§1)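 The binding signal is a Z-score computed within each array and averaged over linkers. Arrays of the same protein sequence at different concentrations or buffers were also averaged together. Data originate from 3228 arrays in the Consortium for Functional Glycomics database, kept only where the protein sequence was available.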
# [1] = target: GlcNAc(b1-3)Gal(b1-4)GlcNAc
# Method in brief: as §1
# [2] = target: GlcNAc(b1-3)Gal(b1-4)GlcNAc(b1-2)Man(a1-3)[GlcNAc(b1-3)Gal(b1-4)GlcNAc(b1-2)Man(a1-6)]Man(b1-4)GlcNAc(b1-4)GlcNAc
# Method in brief: as §1
# [3] = target: GlcNAc(b1-3)Gal(b1-4)GlcNAc(b1-2)Man(a1-3)[GlcNAc(b1-3)Gal(b1-4)GlcNAc(b1-2)Man(a1-6)]Man(b1-4)GlcNAc(b1-4)[Fuc(a1-6)]GlcNAc
# Method in brief: as §1
# [4] = target: GlcNAc(b1-3)Gal(b1-4)GlcNAc(b1-2)[GlcNAc(b1-3)Gal(b1-4)GlcNAc(b1-6)]Man(a1-6)[GlcNAc(b1-3)Gal(b1-4)GlcNAc(b1-2)Man(a1-3)]Man(b1-4)GlcNAc(b1-4)GlcNAc
# Method in brief: as §1
# [5] = target: GlcNAc(b1-3)Gal(b1-4)GlcNAc(b1-3)Gal(b1-4)GlcNAc
# Method in brief: as §1
# [6] = target: GlcNAc(b1-3)Gal(b1-4)GlcNAc(b1-3)Gal(b1-4)GlcNAc(b1-2)Man(a1-3)[GlcNAc(b1-3)Gal(b1-4)GlcNAc(b1-3)Gal(b1-4)GlcNAc(b1-2)Man(a1-6)]Man(b1-4)GlcNAc(b1-4)GlcNAc
# Method in brief: as §1
# [7] = target: GlcNAc(b1-3)Gal(b1-4)GlcNAc(b1-3)Gal(b1-4)GlcNAc(b1-2)Man(a1-3)[GlcNAc(b1-3)Gal(b1-4)GlcNAc(b1-3)Gal(b1-4)GlcNAc(b1-2)Man(a1-6)]Man(b1-4)GlcNAc(b1-4)[Fuc(a1-6)]GlcNAc
# Method in brief: as §1
# [8] = target: GlcNAc(b1-3)Gal(b1-4)GlcNAc(b1-3)Gal(b1-4)GlcNAc(b1-2)[GlcNAc(b1-3)Gal(b1-4)GlcNAc(b1-3)Gal(b1-4)GlcNAc(b1-6)]Man(a1-6)[GlcNAc(b1-3)Gal(b1-4)GlcNAc(b1-3)Gal(b1-4)GlcNAc(b1-2)Man(a1-3)]Man(b1-4)GlcNAc(b1-4)[Fuc(a1-6)]GlcNAc
# Method in brief: as §1
# [9] = target: GlcNAc(b1-3)Gal(b1-4)GlcNAc(b1-3)Gal(b1-4)GlcNAc(b1-3)Gal(b1-4)GlcNAc(b1-2)Man(a1-3)[GlcNAc(b1-3)Gal(b1-4)GlcNAc(b1-3)Gal(b1-4)GlcNAc(b1-3)Gal(b1-4)GlcNAc(b1-2)Man(a1-6)]Man(b1-4)GlcNAc(b1-4)GlcNAc
# Method in brief: as §1
# [10] = target: GlcNAc(b1-3)Gal(b1-4)GlcNAc(b1-3)Gal(b1-4)GlcNAc(b1-3)Gal(b1-4)GlcNAc(b1-2)Man(a1-3)[GlcNAc(b1-3)Gal(b1-4)GlcNAc(b1-3)Gal(b1-4)GlcNAc(b1-3)Gal(b1-4)GlcNAc(b1-2)Man(a1-6)]Man(b1-4)GlcNAc(b1-4)[Fuc(a1-6)]GlcNAc
# Method in brief: as §1
# [11] = target: GlcNAc(b1-3)Gal(b1-4)GlcNAc(b1-3)Gal(b1-4)GlcNAc(b1-3)Gal(b1-4)GlcNAc(b1-2)[GlcNAc(b1-3)Gal(b1-4)GlcNAc(b1-3)Gal(b1-4)GlcNAc(b1-3)Gal(b1-4)GlcNAc(b1-6)]Man(a1-6)[GlcNAc(b1-3)Gal(b1-4)GlcNAc(b1-3)Gal(b1-4)GlcNAc(b1-3)Gal(b1-4)GlcNAc(b1-2)Man(a1-3)]Man(b1-4)GlcNAc(b1-4)[Fuc(a1-6)]GlcNAc
# Method in brief: as §1
# [12] = target: GlcNAc(b1-3)Gal(b1-4)GlcNAc(b1-3)Gal(b1-4)GlcNAc(b1-3)Gal(b1-4)GlcNAc(b1-3)Gal(b1-4)GlcNAc(b1-2)Man(a1-3)[GlcNAc(b1-3)Gal(b1-4)GlcNAc(b1-3)Gal(b1-4)GlcNAc(b1-3)Gal(b1-4)GlcNAc(b1-3)Gal(b1-4)GlcNAc(b1-2)Man(a1-6)]Man(b1-4)GlcNAc(b1-4)GlcNAc
# Method in brief: as §1
# [13] = target: GlcNAc(b1-3)Gal(b1-4)GlcNAc(b1-3)Gal(b1-4)GlcNAc(b1-3)Gal(b1-4)GlcNAc(b1-3)Gal(b1-4)GlcNAc(b1-2)Man(a1-3)[GlcNAc(b1-3)Gal(b1-4)GlcNAc(b1-3)Gal(b1-4)GlcNAc(b1-3)Gal(b1-4)GlcNAc(b1-3)Gal(b1-4)GlcNAc(b1-2)Man(a1-6)]Man(b1-4)GlcNAc(b1-4)[Fuc(a1-6)]GlcNAc
# Method in brief: as §1
# [14] = target: GlcNAc(b1-3)Gal(b1-4)GlcNAc(b1-3)Gal(b1-4)GlcNAc(b1-3)Gal(b1-4)GlcNAc(b1-3)Gal(b1-4)GlcNAc(b1-2)[GlcNAc(b1-3)Gal(b1-4)GlcNAc(b1-3)Gal(b1-4)GlcNAc(b1-3)Gal(b1-4)GlcNAc(b1-3)Gal(b1-4)GlcNAc(b1-6)]Man(a1-6)[GlcNAc(b1-3)Gal(b1-4)GlcNAc(b1-3)Gal(b1-4)GlcNAc(b1-3)Gal(b1-4)GlcNAc(b1-3)Gal(b1-4)GlcNAc(b1-2)Man(a1-3)]Man(b1-4)GlcNAc(b1-4)[Fuc(a1-6)]GlcNAc
# Method in brief: as §1
# [15] = target: GlcNAc(b1-3)Gal(b1-4)GlcNAc(b1-3)Gal(b1-4)GlcNAc(b1-3)GalNAc
# Method in brief: as §1
# [16] = target: GlcNAc(b1-3)Gal(b1-4)GlcNAc(b1-3)GalNAc
# Method in brief: as §1
# [17] = target: GlcNAc(b1-3)Gal(b1-4)GlcNAc(b1-3)[GlcNAc(b1-3)Gal(b1-4)GlcNAc(b1-3)]GalNAc
# Method in brief: as §1
# [18] = target: GlcNAc(b1-3)Gal(b1-4)GlcNAc(b1-6)[Gal(b1-3)]GalNAc
# Method in brief: as §1
# [19] = target: GlcNAc(b1-3)Gal(b1-4)GlcNAc(b1-6)[GlcNAc(b1-3)Gal(b1-3)]GalNAc
# Method in brief: as §1
# [20] = target: GlcNAc(b1-3)Gal(b1-4)GlcNAc(b1-6)[GlcNAc(b1-3)]Gal(b1-4)GlcNAc
# Method in brief: as §1
# GlcNAc(b1-3)GalNAc = target: GlcNAc(b1-3)GalNAc
# Method in brief: as §1
# GlcNAc(b1-3)Man = target: GlcNAc(b1-3)Man
# Method in brief: as §1
# [21] = target: GlcNAc(b1-3)[GlcNAc(b1-4)][GlcNAc(b1-6)]GlcNAc
# Method in brief: as §1
# [22] = target: GlcNAc(b1-3)[GlcNAc(b1-6)]Gal(b1-4)GlcNAc
# Method in brief: as §1
# [23] = target: GlcNAc(b1-3)[GlcNAc(b1-6)]GalNAc
# Method in brief: as §1
# [24] = target: GlcNAc(b1-4)Gal(b1-4)GlcNAc
# Method in brief: as §1
# GlcNAc(b1-4)GlcNAc = target: GlcNAc(b1-4)GlcNAc
# Method in brief: as §1
# [25] = target: GlcNAc(b1-4)GlcNAc(b1-4)GlcNAc
# Method in brief: as §1
# [26] = target: GlcNAc(b1-4)GlcNAc(b1-4)GlcNAc(b1-4)GlcNAc(b1-4)GlcNAc
# Method in brief: as §1
# [27] = target: GlcNAc(b1-4)GlcNAc(b1-4)GlcNAc(b1-4)GlcNAc(b1-4)GlcNAc(b1-4)GlcNAc
# Method in brief: as §1
# [28] = target: GlcNAc(b1-4)[GlcNAc(b1-6)]GalNAc
# Method in brief: as §1
# [29] = target: GlcNAc(b1-6)Gal(b1-4)GlcNAc
# Method in brief: as §1
# GlcNAc(b1-6)GalNAc = target: GlcNAc(b1-6)GalNAc
# Method in brief: as §1
# [30] = target: GlcNAc6S(b1-3)Gal(b1-4)GlcNAc
# Method in brief: as §1
# Kdn(a2-3)Gal(b1-3)GalNAc = target: Kdn(a2-3)Gal(b1-3)GalNAc
# Method in brief: as §1
# Kdn(a2-3)Gal(b1-3)GlcNAc = target: Kdn(a2-3)Gal(b1-3)GlcNAc
# Method in brief: as §1
# Kdn(a2-3)Gal(b1-4)Glc = target: Kdn(a2-3)Gal(b1-4)Glc
# Method in brief: as §1
# Kdn(a2-3)Gal(b1-4)GlcNAc = target: Kdn(a2-3)Gal(b1-4)GlcNAc
# Method in brief: as §1
# [31] = target: Kdn(a2-3)Gal(b1-4)[Fuc(a1-3)]GlcNAc
# Method in brief: as §1
# Kdn(a2-6)Gal(b1-4)GlcNAc = target: Kdn(a2-6)Gal(b1-4)GlcNAc
# Method in brief: as §1
# [32] = target: Man(a1-2)Man(a1-2)Man(a1-3)Man
# Method in brief: as §1
# [33] = target: Man(a1-2)Man(a1-2)Man(a1-6)[Man(a1-3)]Man
# Method in brief: as §1
# Man(a1-2)Man(a1-3)Man = target: Man(a1-2)Man(a1-3)Man
# Method in brief: as §1
# [34] = target: Man(a1-2)Man(a1-3)[Man(a1-2)Man(a1-6)]Man
# Method in brief: as §1
binder,measurement,setting,value
FimA-N1 (Actinomyces oris) (protein) MHHHHHHSSGVDLGTENLYFQSNATETPNYGNIKTDATGSLVIHKHLTGGGKDIGTPTGTAQNADDKGPAVEGVVFTAYPITDINLKDPAGWDTISNLSRTGVPDSACANPAAPTLGAHQFGTPKVSPATTKEGLATITEMPVQAYLVCETTTPGDIVQKAKPFVVTIPHPNTAAGADGQWIYDVNVYPKNEAIDVDKTIQAQK,glycan array binding signal (z-score),GlcNAc(b1-3)Gal(b1-4)Glc,-0.05
same,glycan array binding signal (z-score),[1],-0.34
same,glycan array binding signal (z-score),[2],0.044
same,glycan array binding signal (z-score),[3],-0.002
same,glycan array binding signal (z-score),[4],-0.318
same,glycan array binding signal (z-score),[5],-0.033
same,glycan array binding signal (z-score),[6],-0.187
same,glycan array binding signal (z-score),[7],-0.028
same,glycan array binding signal (z-score),[8],-0.229
same,glycan array binding signal (z-score),[9],-0.25
same,glycan array binding signal (z-score),[10],0.187
same,glycan array binding signal (z-score),[11],-0.242
same,glycan array binding signal (z-score),[12],0.054
same,glycan array binding signal (z-score),[13],-0.204
same,glycan array binding signal (z-score),[14],-0.026
same,glycan array binding signal (z-score),[15],-0.174
same,glycan array binding signal (z-score),[16],-0.212
same,glycan array binding signal (z-score),[17],-0.067
same,glycan array binding signal (z-score),[18],-0.387
same,glycan array binding signal (z-score),[19],-0.187
same,glycan array binding signal (z-score),[20],-0.189
same,glycan array binding signal (z-score),GlcNAc(b1-3)GalNAc,-0.166
same,glycan array binding signal (z-score),GlcNAc(b1-3)Man,-0.364
same,glycan array binding signal (z-score),[21],0.063
same,glycan array binding signal (z-score),[22],-0.464
same,glycan array binding signal (z-score),[23],-0.256
same,glycan array binding signal (z-score),[24],-0.053
same,glycan array binding signal (z-score),GlcNAc(b1-4)GlcNAc,-0.235
same,glycan array binding signal (z-score),[25],-0.134
same,glycan array binding signal (z-score),[26],-0.228
same,glycan array binding signal (z-score),[27],0.163
same,glycan array binding signal (z-score),[28],-0.239
same,glycan array binding signal (z-score),[29],-0.334
same,glycan array binding signal (z-score),GlcNAc(b1-6)GalNAc,-0.13
same,glycan array binding signal (z-score),[30],-0.412
same,glycan array binding signal (z-score),Kdn(a2-3)Gal(b1-3)GalNAc,-0.338
same,glycan array binding signal (z-score),Kdn(a2-3)Gal(b1-3)GlcNAc,-0.396
same,glycan array binding signal (z-score),Kdn(a2-3)Gal(b1-4)Glc,0.117
same,glycan array binding signal (z-score),Kdn(a2-3)Gal(b1-4)GlcNAc,-0.378
same,glycan array binding signal (z-score),[31],0.321
same,glycan array binding signal (z-score),Kdn(a2-6)Gal(b1-4)GlcNAc,0.491
same,glycan array binding signal (z-score),[32],0.382
same,glycan array binding signal (z-score),[33],0.038
same,glycan array binding signal (z-score),Man(a1-2)Man(a1-3)Man,-0.084
same,glycan array binding signal (z-score),[34],-0.309
